The source holds more than one record for some entries. The list is limited to them. The source may hold further records. Values that stand side by side seem to repeat one measurement on other runs, samples or individuals.
Molecular target: activated ERK2 (Homo sapiens (Human), UniProt P28482)
Assay: Activated ERK2 (20 pM) Kinase Assay (AlphaScreen, ERKtide phosphorylation)
Format: biochemical
Settings: 0.02 nM ERK2, 400 nM ERKtide peptide, 35 μM ATP, 30 min preincubation
Method: Activated ERK2 (20 pM) Kinase Assay:
The assay was carried out in 20 mM HEPES [pH 7.5], 5 mM MgCl2, 1 mM DTT, 0.01% Tween-20, 0.05% BSA using 0.02 nM ERK2, 400 nM ERKtide peptide and 35 μM ATP (all concentrations are final in the reaction) in a total volume of 10.25 μL. […] Compound dilution series were prepared in 100% DMSO. ERK2 was preincubated with compounds for 30 minutes at ambient temperature. Reaction was initiated by addition of a substrate cocktail of ERKtide peptide and ATP and was allowed to proceed for 4 hours at ambient temperature. Reaction was terminated by addition of 10 μL of a 2× stop buffer consisting of 100 mM Tris-Cl [pH 7.5], 25 mM EDTA, 0.01% Tween 20, 20 μg/mL of AlphaScreen Protein A Acceptor Beads, 20 μg/mL of Streptavidin Donor Beads (PerkinElmer, Waltham, Mass.), and 1:1000 dilution phospho-EGF Receptor (Thr669) antibody (Cat #8808, Cell Signaling Technology, Danvers, Mass.). Terminated reactions were read, after overnight incubation in the dark, on an EnVision Multilabel Plate Reader (PerkinElmer, Waltham, Mass.), with excitation and emission wavelengths set to 680 nm and 570 nm, respectively. IC50 values were determined using a four-parameter fit.

activated ERK2, sequence (P28482 whole entry): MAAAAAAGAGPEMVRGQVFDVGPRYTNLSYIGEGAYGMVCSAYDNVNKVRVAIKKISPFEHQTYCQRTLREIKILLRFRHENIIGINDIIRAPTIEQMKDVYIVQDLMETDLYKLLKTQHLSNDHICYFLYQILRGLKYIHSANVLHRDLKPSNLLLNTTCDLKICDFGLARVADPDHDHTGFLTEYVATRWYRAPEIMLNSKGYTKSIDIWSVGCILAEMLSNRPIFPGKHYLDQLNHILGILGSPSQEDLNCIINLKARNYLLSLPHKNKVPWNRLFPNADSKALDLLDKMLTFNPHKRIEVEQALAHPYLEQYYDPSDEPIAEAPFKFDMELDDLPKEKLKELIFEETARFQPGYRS

Question: Which IC50 does the source give for `NC[C@@H](NC(=O)c1ccc(-c2nc(C3CCC(F)(F)CC3)cnc2N)cc1F)c1cccc(Cl)c1` [Example 197, (S)—N-(2-amino-1-(3-chlorophenyl)ethyl)-4-(3-amino-6-(4,4-difluorocyclohexyl)pyrazin-2-yl)-2-fluorobenzamide] here?
Answer: Its IC50 is 0.751 nM and 0.04 nM [lines of one column].

Reference: patent publication US9242996B2 (Novartis AG, priority 2013, dated 2016)
